This is one part of the list. Cleavage of a single-stranded DNA pool by Rep nickase domains was read by sequencing for 1 h at 37 °C with 3 µM enzyme; only the middle of the 90-letter strands is printed. Uncut reads are compared with the no-enzyme pool on a log2 scale; more negative means more cut, near 0 not cut, and no call is made. The scaling is to total reads; where an enzyme cuts many sequences, the uncut ones exceed 0.
Tests used:
Assay in all cases: uncleaved DNA left, log2 of reads against the no-enzyme library (log2 ratio); higher = less cleavage (more negative = more Rep cleavage of the k-mer); sequences stand for … in CTCGTCCG…ACCGGAGA
[1] = system: T1, Rep nickase domain of Muscovy duck circovirus
T1 sequence (residues 1-111 of Rep, tag left off): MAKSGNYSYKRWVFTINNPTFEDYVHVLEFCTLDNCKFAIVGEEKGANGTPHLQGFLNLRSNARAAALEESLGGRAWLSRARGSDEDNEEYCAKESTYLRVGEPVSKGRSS
Description: (§1)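 A pool of 90-nt single-stranded DNAs with seven random bases just before the constant AC of the nick site (name = the seven bases) was cut by 3 µM recombinant His6-SUMO-tagged Rep nickase domain (300 nM DNA, 50 mM HEPES pH 8.0, 50 mM NaCl, 1 mM MnCl2, 1 h, 37 °C, three replicates). Uncut DNA was amplified and sequenced.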

[2] = system: T2, Rep nickase domain of banana bunchy top virus
T2 sequence (residues 1-94 of Rep, tag left off): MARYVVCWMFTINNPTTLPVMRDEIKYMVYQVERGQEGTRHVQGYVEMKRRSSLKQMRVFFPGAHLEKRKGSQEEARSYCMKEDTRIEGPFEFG
Description: as §1

[3] = system: T3, Rep nickase domain of cabbage leaf curl virus
T3 sequence (residues 1-116 of Rep, tag left off): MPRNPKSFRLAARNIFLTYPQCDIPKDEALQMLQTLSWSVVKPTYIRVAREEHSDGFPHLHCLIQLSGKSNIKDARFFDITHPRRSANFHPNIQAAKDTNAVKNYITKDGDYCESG
Description: as §1

[4] = system: T4, Rep nickase domain of chickpea chlorotic dwarf virus
T4 sequence (residues 1-124 of Rep, tag left off): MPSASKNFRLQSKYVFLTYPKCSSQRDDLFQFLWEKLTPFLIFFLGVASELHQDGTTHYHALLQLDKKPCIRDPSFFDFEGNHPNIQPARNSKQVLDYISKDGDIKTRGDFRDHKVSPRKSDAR
Description: as §1

[5] = system: T5, Rep nickase domain of faba bean necrotic yellows virus
T5 sequence (residues 1-98 of Rep, tag left off): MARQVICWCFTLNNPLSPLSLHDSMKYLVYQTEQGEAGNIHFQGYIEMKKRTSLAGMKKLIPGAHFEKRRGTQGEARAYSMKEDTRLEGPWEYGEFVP
Description: as §1

[6] = system: T6, Rep nickase domain of maize striate mosaic virus
T6 sequence (residues 1-117 of Rep, tag left off): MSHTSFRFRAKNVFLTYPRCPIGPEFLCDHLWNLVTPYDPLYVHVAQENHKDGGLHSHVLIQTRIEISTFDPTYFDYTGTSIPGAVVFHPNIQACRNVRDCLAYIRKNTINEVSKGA
Description: as §1

[7] = system: T7, Rep nickase domain of porcine circovirus 2
T7 sequence (residues 2-116 of Rep, tag left off): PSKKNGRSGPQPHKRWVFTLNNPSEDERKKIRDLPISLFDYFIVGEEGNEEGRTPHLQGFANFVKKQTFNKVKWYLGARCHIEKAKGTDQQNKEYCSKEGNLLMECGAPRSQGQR
Description: as §1

[8] = system: T8, Rep nickase domain of tomato golden mosaic virus
T8 sequence (residues 1-124 of Rep, tag left off): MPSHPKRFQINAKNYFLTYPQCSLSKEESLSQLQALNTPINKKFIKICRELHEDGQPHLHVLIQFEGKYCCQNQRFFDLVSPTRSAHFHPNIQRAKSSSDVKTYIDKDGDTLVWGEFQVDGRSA
Description: as §1

[9] = system: T9, Rep nickase domain of tomato yellow leaf curl virus
T9 sequence (residues 1-136 of Rep, tag left off): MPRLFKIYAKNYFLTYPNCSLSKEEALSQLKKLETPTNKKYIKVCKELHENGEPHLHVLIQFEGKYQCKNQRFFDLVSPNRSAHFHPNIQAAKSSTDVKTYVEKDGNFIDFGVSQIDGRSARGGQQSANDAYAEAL
Description: as §1

[10] = system: T10, Rep nickase domain of wheat dwarf virus
T10 sequence (residues 1-137 of Rep, tag left off): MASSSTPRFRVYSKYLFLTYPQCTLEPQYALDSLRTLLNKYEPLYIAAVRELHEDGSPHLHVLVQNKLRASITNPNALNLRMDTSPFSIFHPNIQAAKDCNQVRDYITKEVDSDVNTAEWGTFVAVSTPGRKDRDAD
Description: as §1

Sequence	uncleaved DNA left (log2) [1]	uncleaved DNA left (log2) [2]	uncleaved DNA left (log2) [3]	uncleaved DNA left (log2) [4]	uncleaved DNA left (log2) [5]	uncleaved DNA left (log2) [6]	uncleaved DNA left (log2) [7]	uncleaved DNA left (log2) [8]	uncleaved DNA left (log2) [9]	uncleaved DNA left (log2) [10]
TCGCGAA	-0.107	0.0266	-0.492	-0.552	-0.0118	-1.14	-0.0807	-0.0613	-0.0896	-0.109
GGCCCAT	-0.0375	0.0842	0.716	1.73	-0.0119	2.14	0.0984	0.013	-0.0033	0.102
TGACAAA	0.0858	0.173	0.476	0.792	0.0742	0.788	0.196	0.163	0.0489	0.272
GCGTCAT	-0.00276	0.0416	0.638	1.52	-0.0328	1.82	0.0365	-0.0454	-0.015	0.0142
GGCAGTC	0.00697	0.0753	0.712	1.47	0.0627	1.97	0.101	0.125	0.0898	0.139
CAGAAGG	0.131	0.277	0.158	0.628	0.125	-0.397	0.175	0.194	0.0388	0.135
CCTGAAC	-0.0282	-0.128	0.0439	0.0598	0.015	-0.0538	0.0284	-0.115	-0.161	-0.111
ATCCCTT	-0.0704	-0.0372	0.325	-0.989	0.111	0.203	-0.57	-0.153	-0.0257	0.0365
TTCGATC	0.0104	0.0235	0.374	0.339	0.0108	-0.0354	0.0518	-0.0216	0.077	0.0857
TCGGTCA	-0.0309	-0.135	0.402	0.908	-0.105	1.01	-0.152	-0.0172	-0.0348	-0.0854
CCACGGC	0.0726	0.0544	-0.0352	-0.301	0.126	-0.639	0.0862	-0.0608	-0.000974	-0.0318
GGCGAGT	-0.0227	-0.0307	0.243	0.779	-0.0184	1.66	0.188	0.123	-0.0899	0.14
GTTACTA	-0.00791	0.122	0.362	0.875	0.0142	1.84	0.102	0.144	0.238	0.159
TATTGCT	-3.65	-2.96	-1.49	-2.63	-0.163	-1.39	-3.6	-0.141	0.0353	-0.163
CTACGTG	0.0346	-0.116	-0.72	-1.33	0.0208	-1.27	0.106	-0.0999	0.00208	-0.135
TTTCCCC	-1.03	-0.178	0.166	-0.23	-0.0972	-0.0712	-2.37	-0.201	-0.0875	-0.019
ATTACTG	-0.0391	-0.0923	-0.129	0.000743	-0.0225	0.602	0.0103	-0.105	-0.162	-0.00373
GCAAGCC	-0.00466	-0.0419	-0.155	-0.0312	-0.0665	-0.267	0.0789	0.00664	-0.119	-0.0812
TGCAACG	0.0756	0.00456	-0.629	-0.866	0.0837	-1.06	0.148	0.0324	-0.0118	-0.0375
CCCAGAG	0.161	0.0766	-0.551	-0.246	-0.0475	-0.694	0.218	0.11	0.21	0.0421
GGACTTC	0.0729	0.137	0.931	1.89	0.141	2.28	0.351	0.0718	0.171	0.362
TGGTAGG	0.0849	0.00837	0.327	0.889	0.0369	0.936	0.064	0.0152	0.0664	0.045
ATAATTT	-0.00609	-0.0644	0.325	-2.64	0.0824	-0.772	-0.337	0.0796	0.0118	-0.0284
GAGGGGA	-0.00479	-0.142	0.656	1.11	-0.000606	1.82	0.102	0.0613	-0.103	0.0615
CAGCGTC	-0.115	-0.0571	-0.483	-0.712	-0.108	-0.892	0.0382	-0.0726	-0.0483	-0.131
CTCAATC	0.0214	0.0342	-0.389	0.234	-0.0655	-0.13	-0.145	-0.149	-0.0498	0.0648
CCTGCTG	0.23	-0.0544	0.246	0.998	0.00665	0.997	0.171	0.0106	-0.0237	-0.0684
ACCACGC	0.0741	0.0374	-0.207	-0.214	0.0749	-0.806	0.0943	0.167	-0.0137	-0.0371
ATTACCA	-0.047	0.102	-0.0783	-2.38	-0.0226	-0.309	-0.811	0.00871	0.0745	0.0971
GGAGCCT	0.116	0.221	0.76	1.36	0.141	2.08	0.197	0.125	0.112	0.218

Source: the supplement of paper PMC7826260
